These results are taken from PubChem BioAssay (NCI).

The test system of the assay is NCI-H322M lung. The assay is described as follows: inhibition of tumour cell growth, NCI panel, 48 h.

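Values below derive from 48-hour exposures of cells grown in 96-well plates, with endpoints linearly interpolated between the two concentrations bracketing the appropriate inhibition level. GI50 = concentration required for 50% inhibition of growth. Definition used: TGI = concentration required for complete inhibition of growth.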 Where only a bound is given, the exact number is not on record here.

With `O=S(=O)(NCCCNc1cc(-c2cn(-c3ccccc3)nc2-c2cccc(O)c2)ccn1)c1cccc2ccccc12`, the GI50 is 4.62 µM and the TGI is > 100 µM. `COc1ccc(-c2nc(N)c3ncn(C4OC(CO)C(O)C4O)c3n2)cc1` (stereo unspecified): the TGI was > 100 µM. For `CC(=O)NNC(=S)/N=C/c1c(O)cc(C)oc1=O`, the TGI is > 100 µM. On to `COc1ccc(N=C2C(=Nc3ccc(OC)cc3)N(S(=O)(=O)c3ccccc3)C(=S)N2c2ccc(OC)cc2)cc1`, for which the TGI is > 100 µM. Regarding `Nc1nc(N)c2nnn(C[C@H]3CC[C@@H](CO)C3)c2n1`, the TGI was > 100 µM.

`CC(C)CC1[C@@H](OCc2ccccc2)COS(=O)(=O)N1Cc1ccccc1` (stereo partly specified): the TGI is > 100 µM. As to `CCC(O)(c1ccc(OC)cc1)C(c1ccc(OCc2ccccc2)cc1)c1ccc(OCc2ccccc2)cc1` (stereo unspecified), the TGI was > 100 µM. Regarding `COc1cc2c(=O)n(CCCn3ccnc3)c3c4cc5c(cc4ccc3c2cc1OC)OCO5`, the GI50 is 0.605 µM and the TGI was > 100 µM. As to `O=C1/C(=C/c2cccs2)NC(=S)N1CN1CCOCC1`, the TGI was > 100 µM.

As to `Cc1cc(O)c(/C=N/c2nc(-c3cccc([N+](=O)[O-])c3)cs2)c(=O)o1`, the TGI is > 100 µM. `N=c1oc2ccc(Cl)cc2cc1C(=O)NCc1ccccc1`: the TGI is > 100 µM. Take `CN(C)CCCN=c1cc2c(=O)n(CCCN(C)C)c(=O)c3c(NCCCN(C)C)cc4c(O)n(CCCN(C)C)c(=O)c1c4c3-2`: the GI50 is 1.09 µM and the TGI is 5.44 µM. With `O=C(N/N=C\c1ccc([N+](=O)[O-])cc1)Nc1cccc2ccccc12`, the TGI was > 100 µM. In turn, `N#C[C@@]12CCCC(=O)[C@@H]1[C@H]1CCC[C@H]12` registered a TGI of 32.8 µM. On the same count and under the same terms, then `NCC(=O)N1CCN(c2nc(N3CCCC3)c3nc(Cl)c(NCc4ccccc4)nc3n2)CC1`, with 3.52 µM; and `COc1cc2c(cc1OC)C(Cc1ccccc1CCCl)=NCC2`, with > 100 µM; and `COc1ccc(Nc2nc(N)c(C(=O)c3ccccc3)s2)cc1`, with > 100 µM. Same read-out and setting: then `O=CC1OC(=O)c2cc(O)c(O)c(O)c2-c2c(cc(O)c(O)c2O)C(=O)OC1C(O)C(O)CO` (stereo unspecified), with > 100 µM. For `CC(C)NC(=O)OCc1c(COC(=O)NC(C)C)c(-c2ccc[n+](COC(=O)C3CC3)c2)n2c1CCC2`, the TGI was > 100 µM. The compound `CN(C1=NS(=O)(=O)N=C(N(C)c2ccccc2)O1)c1ccccc1` returned a TGI of 47.4 µM. `C[C@]12CC(C#N)C(=O)C(O)=C1CC[C@@H]1C2CC[C@@]2(C)C1CC[C@@H]2O` (stereo partly specified): the TGI is > 100 µM. Take `O=C1CCC2=C3C4CCCCC4C(=O)C4CCCC(OC2C1)C34` (stereo unspecified): the GI50 is 3.59 µM and the TGI is > 32.6 µM. `O=C1OC(C2OC(=O)c3cc(O)c(O)c(O)c3-c3c(O)c(O)c4oc(=O)c5c(c(O)c(O)c6oc(=O)c3c4c65)-c3c(cc(O)c(O)c3O)C(=O)OCC2O)C2OC(=O)c3c(c(O)c(O)c(O)c3[C@H]2O)-c2c1cc(O)c(O)c2O` (stereo partly specified): the TGI was > 100 µM.

`COc1cccc2c1C(=O)c1c(O)c3c(c(O)c1C2=O)C[C@@](O)(/C(C)=N/NC(=O)c1ccccc1)C[C@@H]3OC1CC(N)C(O)C(C)O1` (stereo partly specified) registered a TGI of 7.65 µM. The same measure, in the same setting: in the case of `O=c1c(O)c(-c2cc(O)c(O)cc2O)oc2cc(O)c(C3OC(CO)C(O)C(O)C3O)c(O)c12` (stereo unspecified) it was > 100 µM. With `COc1ccc(CCc2ccc(O)c(C(=O)O)c2)cc1OC`, the TGI was > 100 µM. In the case of `O=C(OCC1CCCN2CCCCC12)c1ccncc1` (stereo unspecified), the TGI is > 100 µM.

`COc1cc([C@@H]2c3cc4c(cc3[C@@H](NCc3ccc(C#N)cc3)C3COC(=O)[C@@H]32)OCO4)cc(OC)c1O` (stereo partly specified) registered a TGI of 41.4 µM. Turning to `CCCCNC(=O)Oc1ccc2c(=O)c3sc4c(=O)c5ccccc5c(=O)c4c3c(=O)c2c1`, the GI50 was 0.17 µM and the TGI is 0.316 µM. In the case of `CC1=C(C(=O)Nc2ccccc2)C(c2ccc(C)o2)C(C#N)=C(SCc2ccccc2)N1` (stereo unspecified), the TGI is > 100 µM. Take `CC(=N/NC(=S)N1CCCCC1)/C(C)=N\NC(=S)N1CCCCC1`: the TGI amounted to 3.51 µM.

Turning to `COc1ccc(-n2c3c(c4c(CN(C)C)c(O)ccc42)C(=O)c2ccccc2C3=O)cc1`, the TGI is 34.4 µM.

For `COc1c(B(O)O)cccc1-c1nc2c(F)cc3[nH]ncc3c2c2c1CCCC2`, the GI50 was 2.5 µM and the TGI was found to be 23.1 µM. Consider `O=C(/C=C\Nc1ccccc1O)C(Cl)(Cl)Cl`, for which the TGI was > 100 µM. The compound `C=Cc1cc2c(cc1O)CC[C@@H]1[C@@H]2CC[C@]2(C)[C@@H](O)CC[C@@H]12` displayed a TGI of 15.1 µM. On to `O=C1CC2C(=O)C1C(C(=O)O)C2C(=O)O` (stereo unspecified), for which the TGI is > 100 µM. `NC1=NC(c2ccccc2)CC(c2cc(Cl)cc(Br)c2O)=N1` (stereo unspecified): the TGI came out at 41.4 µM. In the case of `COc1ccc(CCCC(=O)O)c(C)c1`, the TGI is > 100 µM. As for `COC(=O)c1ccc(CCc2cc(O)c(Br)cc2O)cc1`, the TGI was > 64 µM.

As for `CCc1n[nH]c(=O)n1NC(=O)c1ccccc1C(=O)O`, the TGI was > 100 µM. As for `CC(=O)c1c(-c2ccccc2)c(-c2ccc(OCCN(C)C)cc2)n2ccccc12`, the TGI amounted to 30 µM.

On to `COc1ccc(-c2csc(NC(=O)N3CCN(c4cc5c(cc4F)c(=O)c(C(=O)O)cn5C4CC4)CC3)n2)cc1`, for which the GI50 is 2.64 µM and the TGI was > 100 µM. With `Cc1ccc(S(=O)(=O)/N=C(\[O-])C2=C(c3ccccc3)NN(C)c3nc4cccc[n+]4nc32)cc1`, the TGI was > 100 µM.

With `CC(=O)O[C@H]1C(=O)[C@@]2(C)[C@H]([C@H](OC(=O)c3ccccc3)[C@]3(O)C[C@H](OC(=O)[C@H](O)[C@@H](NC(=O)CC(C)C)c4ccccc4)C(C)=C1C3(C)C)[C@]1(OC(C)=O)CO[C@@H]1C[C@@H]2O`, the TGI is > 10 µM.
